Results: the supplement of paper PMC8728848
Some of the results follow.

Key:
Assay in all cases: glycan array binding signal (z-score within array); higher = stronger binding
Conditions in all cases: glycan notation: IUPAC condensed, linker removed
Fuc(a1-3)GlcNAc = target: Fuc(a1-3)GlcNAc
In short: (§1)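 Glycan array data were curated from 3228 arrays in the Consortium for Functional Glycomics database and kept only where the protein sequence was available. Glycan names were converted to IUPAC-condensed notation, and columns mapping to the same glycan were averaged. The binding signal is a within-array Z-score, averaged across arrays of the same protein sequence at different concentrations or buffers and across linkers. Negative Z-scores can be read as non-binding.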

[1] = target: Fuc(a1-3)[Gal(b1-4)]Glc6S
In short: as §1

[2] = target: Fuc(a1-3)[Gal(b1-4)]GlcNAc
In short: as §1

[3] = target: Fuc(a1-3)[Gal(b1-4)]GlcNAc(b1-2)Man
In short: as §1

[4] = target: Fuc(a1-3)[Gal(b1-4)]GlcNAc(b1-2)Man(a1-3)[Fuc(a1-3)[Gal(b1-4)]GlcNAc(b1-2)Man(a1-6)]Man(b1-4)GlcNAc(b1-4)GlcNAc
In short: as §1

[5] = target: Fuc(a1-3)[Gal(b1-4)]GlcNAc(b1-2)Man(a1-3)[Fuc(a1-3)[Gal(b1-4)]GlcNAc(b1-2)Man(a1-6)]Man(b1-4)GlcNAc(b1-4)[Fuc(a1-6)]GlcNAc
In short: as §1

[6] = target: Fuc(a1-3)[Gal(b1-4)]GlcNAc(b1-3)Gal(b1-3)[Fuc(a1-4)]GlcNAc
In short: as §1

[7] = target: Fuc(a1-3)[Gal(b1-4)]GlcNAc(b1-3)Gal(b1-4)[Fuc(a1-3)]GlcNAc
In short: as §1

[8] = target: Fuc(a1-3)[Gal(b1-4)]GlcNAc(b1-3)Gal(b1-4)[Fuc(a1-3)]GlcNAc(b1-3)Gal(b1-4)[Fuc(a1-3)]GlcNAc
In short: as §1

[9] = target: Fuc(a1-3)[Gal(b1-4)]GlcNAc(b1-3)GalNAc
In short: as §1

[10] = target: Fuc(a1-3)[Gal(b1-4)]GlcNAc(b1-6)GalNAc
In short: as §1

[11] = target: Fuc(a1-3)[Gal(b1-4)]GlcNAc(b1-6)[Gal(b1-3)GlcNAc(b1-3)]Gal(b1-4)Glc
In short: as §1

[12] = target: Fuc(a1-3)[Gal(b1-4)]GlcNAc6S
In short: as §1

[13] = target: Fuc(a1-3)[Gal3S(b1-4)]Glc
In short: as §1

[14] = target: Fuc(a1-3)[Gal3S(b1-4)]GlcNAc
In short: as §1

[15] = target: Fuc(a1-3)[Gal3S(b1-4)]GlcNAc6S
In short: as §1

[16] = target: Fuc(a1-3)[GalNAc(b1-4)]GlcNAc
In short: as §1

[17] = target: Fuc(a1-3)[GalNAc(b1-4)]GlcNAc6S
In short: as §1

Fuc(a1-4)GlcNAc = target: Fuc(a1-4)GlcNAc
In short: as §1

Fuc(b1-3)GlcNAc = target: Fuc(b1-3)GlcNAc
In short: as §1

Gal(a1-2)Gal = target: Gal(a1-2)Gal
In short: as §1

Gal(a1-3)Gal = target: Gal(a1-3)Gal
In short: as §1

Gal(a1-3)Gal(b1-3)GlcNAc = target: Gal(a1-3)Gal(b1-3)GlcNAc
In short: as §1

[18] = target: Gal(a1-3)Gal(b1-3)GlcNAc(b1-2)Man
In short: as §1

[19] = target: Gal(a1-3)Gal(b1-3)GlcNAc(b1-2)Man(a1-3)[Gal(a1-3)Gal(b1-3)GlcNAc(b1-2)Man(a1-6)]Man(b1-4)GlcNAc(b1-4)GlcNAc
In short: as §1

[20] = target: Gal(a1-3)Gal(b1-3)GlcNAc(b1-3)GalNAc
In short: as §1

[21] = target: Gal(a1-3)Gal(b1-3)GlcNAc(b1-6)GalNAc
In short: as §1

[22] = target: Gal(a1-3)Gal(b1-3)[Fuc(a1-4)]GlcNAc(b1-2)Man(a1-3)[Gal(a1-3)Gal(b1-3)[Fuc(a1-4)]GlcNAc(b1-2)Man(a1-6)]Man(b1-4)GlcNAc(b1-4)GlcNAc
In short: as §1

Gal(a1-3)Gal(b1-4)Glc = target: Gal(a1-3)Gal(b1-4)Glc
In short: as §1

Gal(a1-3)Gal(b1-4)GlcNAc = target: Gal(a1-3)Gal(b1-4)GlcNAc
In short: as §1

[23] = target: Gal(a1-3)Gal(b1-4)GlcNAc(b1-2)Man
In short: as §1

[24] = target: Gal(a1-3)Gal(b1-4)GlcNAc(b1-2)Man(a1-3)[Gal(a1-3)Gal(b1-4)GlcNAc(b1-2)Man(a1-6)]Man(b1-4)GlcNAc(b1-4)GlcNAc
In short: as §1

[25] = target: Gal(a1-3)Gal(b1-4)GlcNAc(b1-3)GalNAc
In short: as §1

[26] = target: Gal(a1-3)Gal(b1-4)GlcNAc(b1-6)GalNAc
In short: as §1

[27] = target: Gal(a1-3)Gal(b1-4)[Fuc(a1-3)]GlcNAc
In short: as §1

[28] = target: Gal(a1-3)Gal(b1-4)[Fuc(a1-3)]GlcNAc(b1-2)Man(a1-3)[Gal(a1-3)Gal(b1-4)[Fuc(a1-3)]GlcNAc(b1-2)Man(a1-6)]Man(b1-4)GlcNAc(b1-4)GlcNAc
In short: as §1

Gal(a1-3)GalNAc = target: Gal(a1-3)GalNAc
In short: as §1

B1: SBD-G4S3-Fc (protein)
chain: MASIPSSASVQLDSYNYDGSTFSGKIYVKNIAYSKKVTVVYADGSDNWNNNGNIIAASFSGPISGSNYEYWTFSASVKGIKEFYIKYEVSGKTYYDNNNSANYQVSTGGGGSGGGGSGGGGSEFVPRDCGCKPCICTVPEVSSVFIFPPKPKDVLTITLTPKVTCVVVDISKDDPEVQFSWFVDDVEVHTAQTQPREEQFNSTFRSVSELPIMHQDWLNGKEFKCRVNSAAFPAPIEKTISKTKGRPKAPQVYTIPPPKEQMAKDKVSLTCMITDFFPEDITVEWQWNGQPAENYKNTQPIMDTDGSYFVYSKLNVQKSNWEAGNTFTCSVLHEGLHNHHTEKSLSHSPGAA
Fuc(a1-3)GlcNAc
  glycan array binding signal (z-score): -0.374
[1]
  glycan array binding signal (z-score): -0.089
[2]
  glycan array binding signal (z-score): -0.283
[3]
  glycan array binding signal (z-score): -0.075
[4]
  glycan array binding signal (z-score): -0.034
[5]
  glycan array binding signal (z-score): -0.131
[6]
  glycan array binding signal (z-score): -0.281
[7]
  glycan array binding signal (z-score): 0.116
[8]
  glycan array binding signal (z-score): -0.056
[9]
  glycan array binding signal (z-score): -0.251
[10]
  glycan array binding signal (z-score): -0.122
[11]
  glycan array binding signal (z-score): -0.448
[12]
  glycan array binding signal (z-score): -0.406
[13]
  glycan array binding signal (z-score): -0.376
[14]
  glycan array binding signal (z-score): -0.12
[15]
  glycan array binding signal (z-score): -0.033
[16]
  glycan array binding signal (z-score): 0.174
[17]
  glycan array binding signal (z-score): -0.32
Fuc(a1-4)GlcNAc
  glycan array binding signal (z-score): -0.376
Fuc(b1-3)GlcNAc
  glycan array binding signal (z-score): -0.254
Gal(a1-2)Gal
  glycan array binding signal (z-score): -0.316
Gal(a1-3)Gal
  glycan array binding signal (z-score): -0.039
Gal(a1-3)Gal(b1-3)GlcNAc
  glycan array binding signal (z-score): 0.292
[18]
  glycan array binding signal (z-score): -0.206
[19]
  glycan array binding signal (z-score): 1.16
[20]
  glycan array binding signal (z-score): -0.119
[21]
  glycan array binding signal (z-score): -0.443
[22]
  glycan array binding signal (z-score): 0.202
Gal(a1-3)Gal(b1-4)Glc
  glycan array binding signal (z-score): 0.017
Gal(a1-3)Gal(b1-4)GlcNAc
  glycan array binding signal (z-score): -0.394
[23]
  glycan array binding signal (z-score): -0.234
[24]
  glycan array binding signal (z-score): 0.629
[25]
  glycan array binding signal (z-score): 0.357
[26]
  glycan array binding signal (z-score): 0.184
[27]
  glycan array binding signal (z-score): -0.267
[28]
  glycan array binding signal (z-score): 0.271
Gal(a1-3)GalNAc
  glycan array binding signal (z-score): -0.096
